Experimental findings from publication PMC12820563, “FoxP3 forms a head-to-head dimer in vivo and stabilizes its multimerization on adjacent microsatellites” are described below.

Some of the results follow.

This assay deals with T1, MBP-FoxP1dN (Mus musculus, UniProt P58462 326-579).
T1 sequence: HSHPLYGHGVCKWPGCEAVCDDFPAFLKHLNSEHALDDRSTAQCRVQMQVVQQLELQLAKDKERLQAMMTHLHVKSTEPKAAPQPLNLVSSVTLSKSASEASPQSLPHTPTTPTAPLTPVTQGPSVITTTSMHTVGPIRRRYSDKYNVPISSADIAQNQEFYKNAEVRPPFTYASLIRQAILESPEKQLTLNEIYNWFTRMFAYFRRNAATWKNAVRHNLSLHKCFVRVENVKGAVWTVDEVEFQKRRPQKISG
Kind of assay: PD-seq (MBP pull-down with sequencing); 20 mM Tris-HCl pH 7.5, 100 mM NaCl, 1.5 mM MgCl2, 0.4 uM protein, 0.1 uM dsDNA library, 30 min, room temperature, amylose pull-down; high values mean tight binding. The settings on record: protein: recombinant; tags: His6-MBP; chain copies: 2; dsDNA, one strand shown. Summed up:
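Mouse FoxP3 or FoxP1 fragment lacking the N-terminus, His6-MBP-tagged and expressed in E. coli, was incubated at 0.4 µM with 0.1 µM Klenow-filled degenerate double-stranded DNA library for 30 min at room temperature in Tris pH 7.5 buffer with NaCl and MgCl2. Complexes captured on amylose resin were washed three times and their DNA sequenced on Illumina. Binding is reads-per-million enrichment of pull-down over input, replicates pooled.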
On to “GATGATTGTTCTCCCAGCTGATGAATTCGCGGAATCGAGTAAACAAATTTTCCTAATCTTTCTGTTCAAGCGCCATCTAC”, for which the binding signal was 0.94 RPM ratio (pull-down/input).

Consider “GATGATTGTTCTCCCAGCTGATGAATTAGTGGCCTCGAGTAAACAAATTTTCCTAATCTTTCTGTTCAAGCGCCATCTAC”, for which the binding signal is 0.931 RPM ratio (pull-down/input).

As for “GATGATTGTTCTCCCAGCTGATGAATTGATCTTCTCGAGTAAACAAATTTTCCTAATCTTTCTGTTCAAGCGCCATCTAC”, the binding signal was 0.956 RPM ratio (pull-down/input).

In the case of “GATGATTGTTCTCCCAGCTGATGAATTAGTCTCGTCGAGTAAACAAATTTTCCTAATCTTTCTGTTCAAGCGCCATCTAC”, the binding signal was 0.886 RPM ratio (pull-down/input).

Turning to “GATGATTGTTCTCCCAGCTGATGAATTCCGTTTCTCGAGTAAACAAATTTTCCTAATCTTTCTGTTCAAGCGCCATCTAC”, the binding signal is 0.886 RPM ratio (pull-down/input).

“GATGATTGTTCTCCCAGCTGATGAATTTTGATGTTCGAGTAAACAAATTTTCCTAATCTTTCTGTTCAAGCGCCATCTAC”: the binding signal is 1.46 RPM ratio (pull-down/input).

With “GATGATTGTTCTCCCAGCTGATGAATTTCTCTCCTCGAGTAAACAAATTTTCCTAATCTTTCTGTTCAAGCGCCATCTAC”, the binding signal is 0.871 RPM ratio (pull-down/input).

Turning to “GATGATTGTTCTCCCAGCTGATGAATTCCGATCGTCGAGTAAACAAATTTTCCTAATCTTTCTGTTCAAGCGCCATCTAC”, the binding signal is 0.748 RPM ratio (pull-down/input).

For “GATGATTGTTCTCCCAGCTGATGAATTTACACTATCGAGTAAACAAATTTTCCTAATCTTTCTGTTCAAGCGCCATCTAC”, the binding signal is 1.42 RPM ratio (pull-down/input).

For the sequence “GATGATTGTTCTCCCAGCTGATGAATTACCGGGATCGAGTAAACAAATTTTCCTAATCTTTCTGTTCAAGCGCCATCTAC”, the binding signal is 0.847 RPM ratio (pull-down/input).

Turning to “GATGATTGTTCTCCCAGCTGATGAATTATAGCTATCGAGTAAACAAATTTTCCTAATCTTTCTGTTCAAGCGCCATCTAC”, the binding signal was 1.09 RPM ratio (pull-down/input).

As to “GATGATTGTTCTCCCAGCTGATGAATTGCTCGGTTCGAGTAAACAAATTTTCCTAATCTTTCTGTTCAAGCGCCATCTAC”, the binding signal is 0.946 RPM ratio (pull-down/input).

“GATGATTGTTCTCCCAGCTGATGAATTCGCAAGATCGAGTAAACAAATTTTCCTAATCTTTCTGTTCAAGCGCCATCTAC”: the binding signal is 0.899 RPM ratio (pull-down/input).

“GATGATTGTTCTCCCAGCTGATGAATTCGTACGATCGAGTAAACAAATTTTCCTAATCTTTCTGTTCAAGCGCCATCTAC”: the binding signal was 0.974 RPM ratio (pull-down/input).

As to “GATGATTGTTCTCCCAGCTGATGAATTCACCCTGTCGAGTAAACAAATTTTCCTAATCTTTCTGTTCAAGCGCCATCTAC”, the binding signal is 0.817 RPM ratio (pull-down/input).

Turning to “GATGATTGTTCTCCCAGCTGATGAATTCGCCTAATCGAGTAAACAAATTTTCCTAATCTTTCTGTTCAAGCGCCATCTAC”, the binding signal is 0.938 RPM ratio (pull-down/input).

Turning to “GATGATTGTTCTCCCAGCTGATGAATTGAATCTGTCGAGTAAACAAATTTTCCTAATCTTTCTGTTCAAGCGCCATCTAC”, the binding signal was 0.897 RPM ratio (pull-down/input).

As to “GATGATTGTTCTCCCAGCTGATGAATTCCCTGATTCGAGTAAACAAATTTTCCTAATCTTTCTGTTCAAGCGCCATCTAC”, the binding signal is 0.807 RPM ratio (pull-down/input).
